Experimental data taken from patent US20230051266A1 (ABL BIO, published 2023).

T1: human BCMA on cells (CHOK1-hBCMA; H929 endogenous BCMA) (human, UniProt Q02223 1-184)
T1 construct: Cell-surface BCMA in FACS; also called mammalian expressed BCMA; native antigen
T1 sequence: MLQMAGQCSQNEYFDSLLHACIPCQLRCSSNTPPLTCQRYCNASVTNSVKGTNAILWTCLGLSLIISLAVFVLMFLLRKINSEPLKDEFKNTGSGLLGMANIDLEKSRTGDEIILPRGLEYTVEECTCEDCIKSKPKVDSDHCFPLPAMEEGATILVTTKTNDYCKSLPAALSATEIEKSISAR

B1: B58(NA)x41B01 (bispecific antibody, human IgG1, lambda)
heavy: EVQLLESGGGLVQPGGSLRLSCAASGFTFSNYDMSWVRQAPGKGLEWVSWIYPSDSSIYYADSVKGRFTISRDNSKNTLYLQMNSLRAEDTAVYYCARGPFANKYRQFDYWGQGTLVTVSSASTKGPSVFPLAPSSKSTSGGTAALGCLVKDYFPEPVTVSWNSGALTSGVHTFPAVLQSSGLYSLSSVVTVPSSSLGTQTYICNVNHKPSNTKVDKKV[in this place human IgG1 Fc with changes]GGGGSGGGGSGGGGSQSVLTQPPSASGTPGRRVTISCSGSSSNIGNNYVTWYQQLPGTAPKLLIYADSHRPSGVPDRFSGSKSGTSASLAISGLRSEDEADYYCATWDYSLSGYVFGCGTKLTVLGGGGSGGGGSGGGGSGGGGSEVQLLESGGGLVQPGGSLRLSCAASGFTFSSYDMSWVRQAPGKCLEWVSWISYSGGSIYYADSVKGRFTISRDNSKNTLYLQMNSLRAEDTAVYYCARDGQRNSMREFDYWGQGTLVTVSS
light: QSVLTQPPSASGTPGQRVTISCSGSSSNIGSNSVSWYQQLPGTAPKLLIYADSKRPSGVPDRFSGSKSGTSASLAISGLRSEDEADYYCGSWDYSLSGYVFGGGTKLTVLGQPKAAPSVTLFPPSSEELQANKATLVCLISDFYPGAVTVAWKADSSPVKAGVETTTPSKQSNNKYAASSYLSLTPEQWKSHRSYSCQVTHEGSTVEKTVAPAECS
notes: IgG1 N297A-scFv; also called B58(NA) x41B01 (1A10)
B2: B58(NA)xAB41 (bispecific antibody, human IgG1, lambda)
heavy: EVQLLESGGGLVQPGGSLRLSCAASGFTFSNYDMSWVRQAPGKGLEWVSWIYPSDSSIYYADSVKGRFTISRDNSKNTLYLQMNSLRAEDTAVYYCARGPFANKYRQFDYWGQGTLVTVSSASTKGPSVFPLAPSSKSTSGGTAALGCLVKDYFPEPVTVSWNSGALTSGVHTFPAVLQSSGLYSLSSVVTVPSSSLGTQTYICNVNHKPSNTKVDKKV[in this place human IgG1 Fc with changes]GGGGSGGGGSGGGGSDIVMTQSPAFLSVTPGEKVTITCRASQTISDYLHWYQQKPDQAPKLLIKYASQSISGIPSRFSGSGSGTDFTFTISSLEAEDAATYYCQDGHSFPPTFGCGTKLEIKRGGGGSGGGGSGGGGSGGGGSQVQLQQSGAEVIKPGASVKLSCKASGYTFSSYWMHWVRQAPGQCLEWIGEINPGNGHTNYNEKFKSRATLTGDTSTSTVYMELSSLRSEDTAVYYCARSFTTARAFAYWGQGTLVTVSS
light: B1 light
notes: IgG1 N297A-scFv (VL-(G4S)4-VH)
B3: B58(NA)x41B02 (bispecific antibody, human IgG1, lambda)
heavy: EVQLLESGGGLVQPGGSLRLSCAASGFTFSNYDMSWVRQAPGKGLEWVSWIYPSDSSIYYADSVKGRFTISRDNSKNTLYLQMNSLRAEDTAVYYCARGPFANKYRQFDYWGQGTLVTVSSASTKGPSVFPLAPSSKSTSGGTAALGCLVKDYFPEPVTVSWNSGALTSGVHTFPAVLQSSGLYSLSSVVTVPSSSLGTQTYICNVNHKPSNTKVDKKV[in this place human IgG1 Fc with changes]GGGGSGGGGSGGGGSQSVLTQPPSASGTPGRRVTISCSGSSSNIGNNYVTWYQQLPGTAPKLLIYADSHRPSGVPDRFSGSKSGTSASLAISGLRSEDEADYYCATWDYSLSGYVFGCGTKLTVLGGGGSGGGGSGGGGSGGGGSEVQLLESGGGLVQPGGSLRLSCAASGFTFSGYDMSWVRQAPGKCLEWVSVIYPDDGNTYYADSVKGRFTISRDNSKNTLYLQMNSLRAEDAAVYYCAKHGGQKPTTKSSSAYGMDGWGQGTLVTVSS
light: B1 light
notes: IgG1 N297A-scFv (VL-(G4S)4-VH); also called B58(NA) x41B02 (1A12)

How the values were obtained:
[1] = target: T1, human BCMA on cells (CHOK1-hBCMA; H929 …); assay: FACS, 100 nM antibody, H929 cells
Method: (§1) To evaluate the antigen binding property, the antibody candidates were analyzed for their bindings to BCMA expressed cells by FACS. Briefly, CHOK1 expressing human BCMA (CHOK1-hBCMA) or H929 expressing endogenous BCMA cells were treated with the 100 nM of indicated antibodies at 4° C. for 1 hr. CHOK1 cells were used for BCMA-negative control. After washing by FACS buffer (1% (w/v) BSA in PBS), cells were incubated with the FTTC-anti-human IgG antibody at 4° C. for 1 hr and then subjected to FACS analysis. As shown in FIGS. 2d-2f, the anti-BCMAx4-1BB antibodies bind to BCMA expressed CHOK1-hBCMA and H929 cell lines but not BCMA negative CHOK1.

[2] = target: T1, human BCMA on cells (CHOK1-hBCMA; H929 …); assay: FACS, 100 nM antibody, CHOK1-hBCMA cells
Method: as §1

| Binder | quantified FACS signal (name not given) [1] | quantified FACS signal (name not given) [2] |
| --- | --- | --- |
| B1 | 45.8 | 662 |
| B2 | 49.8 | 652 |
| B3 | 41.6 | 644 |
